Assay results taken from PubChem BioAssay AID1476 (National Center for Advancing Translational Sciences (NCATS), 2009).
Several values for one entry are separate records, joined by “and”; a condition that tells them apart may be missing. Equal values may be shown once. Hit rate of the full screen: of about 200,000 compounds, about 4,500 (2.2%) were called active. Inconclusive results, whose numbers are uncertain, are shown with a selection of clear calls. Calls follow the shape of the dose curve; as a rule, active = well fitted inhibition curve with a large enough effect; inconclusive = small, poorly fitted or top-dose-only effect, or effect the other way; inactive = flat fitted curve, though single readings scatter. A potency beside an inconclusive call is a rough fit, not a confirmed value. A structure can be active in one record and inactive in another.

target: Cruzipain (Trypanosoma cruzi) (UniProt P25779); experiment: qHTS Assay for Promiscuous and Specific Inhibitors of Cruzain (without detergent); conditions: purified cruzain, Z-FR-AMC fluorescence, no detergent; also: nearly all actives have a fitted effect of over 40% in size;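 as to max response, negative = inhibition: plate controls were enzyme without inhibitor for no effect and buffer without enzyme for full effect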
How it was run: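 Detergent-free condition (0.00005% Triton X-100) in acetate buffer pH 5.5 with DTT. 1.5 nM enzyme and compound were pre-mixed 15 min, then 2 uM Z-FR-AMC substrate added; reaction progress from fluorescence change between first and third reads (60 s).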
Potency is read from the fitted curve at half-maximal effect; tags tell the direction and shape of the fitted curve.

Sequence of UniProt P25779 (P25779 whole entry, looked up): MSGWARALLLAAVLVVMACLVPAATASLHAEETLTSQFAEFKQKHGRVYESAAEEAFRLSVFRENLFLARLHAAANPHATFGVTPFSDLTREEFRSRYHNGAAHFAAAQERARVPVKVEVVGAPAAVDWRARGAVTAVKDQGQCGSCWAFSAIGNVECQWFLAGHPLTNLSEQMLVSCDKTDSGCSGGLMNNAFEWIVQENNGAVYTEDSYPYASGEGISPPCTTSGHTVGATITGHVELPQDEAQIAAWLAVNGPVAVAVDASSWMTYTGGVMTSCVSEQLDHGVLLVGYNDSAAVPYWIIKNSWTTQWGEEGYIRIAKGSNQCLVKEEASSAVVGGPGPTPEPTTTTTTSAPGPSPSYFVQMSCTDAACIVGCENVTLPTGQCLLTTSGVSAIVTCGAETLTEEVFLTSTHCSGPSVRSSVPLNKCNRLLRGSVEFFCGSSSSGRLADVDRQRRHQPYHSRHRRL

Structure (SMILES)	Potency	max response, negative = inhibition
COc1ccccc1N1CCN(S(=O)(=O)c2ccc(-c3ccno3)cc2OC)CC1	inconclusive: 39.8 µM [activator, single point]	–
O=C(NCc1ccc(Cl)cc1)c1cc2ccc3cccnc3c2[nH]1	active: 25.1 µM	–
COc1cccc(-n2c(SCC(=O)Nc3cccc(C)c3)nc3c([nH]c4ccccc43)c2=O)c1	active: 31.6 µM	–
C=CCn1c2ccccc2c2nnc(SC(CC)C(=O)Nc3sc4c(c3C#N)CCCC4)nc21 (stereo not drawn)	active: 25.1 µM	–
O=C(Nc1cc2c3c(c1)C1CCCC1CN3CC1CCCC21)c1ccc([N+](=O)[O-])cc1 (stereo not drawn)	active: 25.1 µM	–
O=C(CSc1ccccc1)N1CCc2c([nH]c3ccccc23)C1c1ccc(Cl)cc1 (stereo not drawn)	active: 12.6 µM	–
O=C(N/N=C/c1cccc([N+](=O)[O-])c1)c1ccc2c(c1)OCCO2	–	inactive: 4.74%
O=C(CSc1nc2c([nH]c3ccccc32)c(=O)n1-c1ccccc1)N1CCCc2ccccc21	–	inactive: -8.92%
CC(NC(=O)C12CC3CC(CC(C3)C1)C2)C(=O)N/N=C/C1=C(N2CCOCC2)C(=C\c2cccc([N+](=O)[O-])c2)/CC1 (stereo not drawn)	–	inactive: -21.4%
COC(=O)c1cc(NC(=O)c2ccc(-c3ccccc3)cc2)ccc1Cl	inconclusive: 31.6 µM [inhibitor, single point]	–
COc1ccc(C2CC(c3ccccc3)=NN2C(=O)c2cccs2)cc1 (stereo not drawn)	inconclusive: 31.6 µM [inhibitor, single point]	–
CCc1ccc(NC(=O)CSc2nc(C)c(C(=O)Nc3ccc(Cl)cc3)c(-c3ccc(OC)cc3)c2C#N)cc1	active: 7.94 µM	–
Cc1cc([N+](=O)[O-])ccc1-c1ccc(C2Nc3ccccc3C(=O)N2O)o1 (stereo not drawn)	active: 20 µM	–
CCOC(=O)c1c(C)[nH]c(C)c1C(=O)COC(=O)c1cccc(S(=O)(=O)N(CC)CC)c1	inconclusive: 39.8 µM [activator, single point]	–
O=C1/C(=C/c2ccc(N3CCCC3)cc2)NC(=S)N1C1CC1	–	inactive: 4.2%
CCOc1ccc(NC(=O)CSc2ncnc3c2sc2ccccc23)cc1	active: 25.1 µM	–
CCCS(=O)(=O)c1c(S(=O)(=O)CCC)c2cnccn2c1C(=O)c1ccc(CC)cc1	inconclusive: 31.6 µM [activator, single point]	–
COC(=O)[C@@]1(Cc2ccccc2)[C@H]2c3cc(C(=O)N(C)C)n(CCSCCO)c3C[C@H]2CN1C(=O)c1ccccc1	inconclusive: 10 µM [activator, partial curve]	–
COc1ccc(CN(Cc2ccc(OC)cc2)S(=O)(=O)c2ccc(-n3cnnn3)c(C)c2)cc1	inconclusive: 31.6 µM [activator, single point]	–
CCOC(=O)N1CCc2c(sc3c2c(=O)n(Cc2ccccc2)c(=O)n3CC(=O)Nc2cccc(C)c2)C1	–	inactive: -13.3%
Cc1ccccc1OCc1nnc(SCC(=O)Nc2ccc(N3CCOCC3)c(Cl)c2)n1C	inconclusive: 39.8 µM [activator, single point]	–

Structure (SMILES)	Potency	max response, negative = inhibition
COC(=O)c1sc(-c2ccccc2)cc1NC(=O)Nc1ccccc1Cl	active: 10 µM	–
O=C1C=C(c2ccccc2)C[C@H](c2cccs2)[C@H]1n1nnc([N+](=O)[O-])n1	inconclusive: 31.6 µM [inhibitor, single point]	–
Cc1cc(NC(=O)c2cc(-c3cccnc3)nc3c(C)c(C)ccc23)no1	inconclusive: 20 µM [activator, single point]	–
CC1=C(/C=C/C(C)=C/C=C/C(C)=C/C(=O)O)C(C)(C)CCC1	inconclusive: 31.6 µM [inhibitor, single point] and inconclusive: 39.8 µM [activator, single point]	–
Cc1ccc(C)c(-n2c(SCC(=O)NCC3CCCO3)nnc2-c2ccoc2C)c1 (stereo not drawn)	inconclusive: 39.8 µM [activator, single point]	–
Cc1nc2ccc(S(=O)(=O)CCC(=O)Nc3ccc(C(C)C)cc3)cc2s1	–	inactive: -4.25%
Cc1c(/C(O)=C2\C(=O)C(=O)N(CCCN(C)C)C2c2ccncc2)cnn1-c1ccccc1 (stereo not drawn)	–	inactive: -8.57%
CC(C)(C)c1ccc(C(=O)Nc2ccc(C(=O)OCc3cc(=O)n4ccsc4n3)cc2)cc1	–	inactive: 10.1%
COC(=O)c1ccc(/C=C(\C#N)c2nc3ccccc3s2)cc1	–	inactive: 11.7%
O=Cc1ccccc1	–	inactive: 1.79%
S=C1NCCOCCOCCOCCOCCNC(=S)NCCOCCOCCOCCOCCN1	inconclusive: 31.6 µM [activator, partial curve]	–
Cc1ccc(C)c(N2CCN(C(=O)C3CCN(C(=O)c4cc5sccc5n4C)CC3)CC2)c1	inconclusive: 31.6 µM [activator, partial curve]	–
Cc1ccc(OC(C)C(=O)Nc2ccc(C)c(S(=O)(=O)Nc3ccc(C)cc3C)c2)cc1 (stereo not drawn)	inconclusive: 25.1 µM [inhibitor, single point]	–
O=S(=O)(c1ccc(Br)cc1)c1nc(-c2cccs2)oc1SCc1ccc(F)cc1	inconclusive: 39.8 µM [inhibitor, single point]	–
Cc1ccc(NC(=O)CSc2nc3c(c(=O)[nH]2)CCC3)cc1Cl	–	inactive: -6.71%
COCCCN(C(C)=O)c1nc(-c2ccccc2)cs1	–	inactive: 9.82%
CC(=O)OC1CC2C(C)(C)C(=O)C3OC3[C@]2(C)C2CC[C@@]3(C)C(c4ccoc4)OC(=O)C4OC43[C@]12C (stereo partly drawn)	–	inactive: 19.3%
Cc1c(C(=O)c2cccc3ccccc23)c2cccc3c2n1[C@H](CN1CCOCC1)CO3	inconclusive: 15.8 µM [activator, partial curve]	–
Cc1ccc(S(=O)Cc2ccc(C(=O)NC3CCCCCC3)o2)cc1 (stereo not drawn)	–	inactive: 3.62%
CCN1c2ccccc2NC2C1C(C(C)=O)C(=O)N2c1ccc(Cl)cc1 (stereo not drawn)	inconclusive: 25.1 µM [inhibitor, single point]	–
CCc1cccc(NC(=O)c2c(N3CCCC3=O)c3cc(C)ccc3n2C)c1	–	inactive: 7.2%

Structure (SMILES)	Potency	max response, negative = inhibition
Cc1oc(-c2ccccc2F)nc1CS(=O)(=O)CC(=O)N1CCN(c2ccc(Cl)cc2)CC1	inconclusive: 39.8 µM [activator, single point]	–
O=C(Nc1cc2c(cc1C(=O)c1ccc(Br)cc1)OCCO2)c1ccc(Cl)cc1	–	inactive: -3.11%
COc1cc(/C=C/C(=O)OCC(=O)Nc2ccc3c(c2)OCCO3)ccc1OCC#N	inconclusive: 39.8 µM [inhibitor, single point]	–
Cc1ccc(N2CC(NC(=O)c3ccco3)CC2=O)cc1 (stereo not drawn)	–	inactive: -0.396%
O=C(c1ccc2c(c1)N(Cc1ccc(F)cc1)C(=O)c1ccccc1S2(=O)=O)N1CCCCCC1	–	inactive: 6.57%
O=C(c1ccc2c(c1)N(Cc1ccc(Cl)cc1)C(=O)c1ccccc1S2(=O)=O)N1CCC(Cc2ccccc2)CC1	active: 12.6 µM	–
Fc1ccc(Br)cc1C1C=C(c2ccc(Br)cc2)Nc2ncnn21 (stereo not drawn)	inconclusive: 39.8 µM [inhibitor, single point]	–
COC(=O)[C@@]1(Cc2ccc(F)cc2)[C@H]2c3cc(C(=O)N4CCCC4)n(CCc4ccccn4)c3C[C@H]2CN1C(=O)c1ccccc1	inconclusive: 20 µM [activator, partial curve] and inconclusive: 25.1 µM [activator, partial curve]	–
N#Cc1nc(-c2ccco2)oc1N1CCN(c2cccc(Cl)c2)CC1	inconclusive: 39.8 µM [inhibitor, single point]	–
Cc1cccc(CNc2nc(-c3ccoc3)nc3ccccc23)c1	inconclusive: 31.6 µM [inhibitor, single point]	–
C[C@H](CCC(=O)NCC(=O)O)[C@H]1CC[C@H]2[C@H]3[C@@H](C[C@@H](O)[C@]12C)[C@]1(C)CC[C@H](O)C[C@@H]1C[C@@H]3O	inconclusive: 5.01 µM [activator, partial curve]	–
Cn1cnnc1SCC(=O)Nc1ccc2nc(SCc3ccccc3F)sc2c1	inconclusive: 39.8 µM [activator, single point]	–
CCN1C(=O)S/C(=C/c2c(OCc3ccc(C(=O)O)cc3)ccc3ccccc23)C1=O	inconclusive: 31.6 µM [activator, single point]	–
CCCCn1c(NC(C)=O)c(C#N)c2nc3ccccc3nc21	inconclusive: 15.8 µM [activator, partial curve]	–
Cc1cc(C)n2nc3nc(N4CCCC4)nc(-c4ccccc4)c3c2n1	inconclusive: 25.1 µM [activator, single point]	–
Clc1ccc(-c2nnc(-c3ccccc3)nc2N2CCSCC2)cc1	inconclusive: 1.26 µM [inhibitor, full curve, poor fit]	–
Cc1ccccc1N1CCN(Cc2c(C#N)c3ccccc3n2C)CC1	inconclusive: 31.6 µM [inhibitor, single point]	–
COc1ccc(O[C@H]2C=C[C@@H](c3ccccc3)O[C@@H]2COC(=O)CC/C(C)=N/OC[C@@H](O)COCc2ccco2)cc1	inconclusive: 25.1 µM [activator, partial curve]	–
Cc1ccc(C)c(CN2C(=O)c3ccccc3S(=O)c3ccc(C(=O)NCCc4ccc(Cl)cc4)cc32)c1 (stereo not drawn)	active: 6.31 µM	–
Cn1c(=O)c2cc(S(=O)(=O)NCCC(=O)NCCc3ccc(Cl)cc3)ccc2n(C)c1=O	inconclusive: 39.8 µM [activator, single point]	–
O=C1OC2(CCCCC2)OC(=O)C1=CNc1ccc2c(c1)OCO2	–	inactive: 0.0384%
